Source: PubChem BioAssay AID485344 (National Center for Advancing Translational Sciences (NCATS), 2010)
Among all 340,000 compounds or so, about 6,900 (2%) were called active. Cut-off read from the data, not from the text of the source: active = inhibition above about 30%; inactive = below that, where a call was filed. The list shows a part of the results, in another mix than the full data. Entries without a call were filed so in the source.
Note: 0% is about no effect.

These molecules were tested against D(2) dopamine receptor (Homo sapiens) (UniProt P14416) (assay: HTS Assay for Allosteric Antagonists of the Human D2 Dopamine Receptor: Primary Screen for Antagonists). Settings: HEK293 TREx D2 cells, calcium flux, dopamine EC80; at 10 µM; stronger effect = higher value.
Chain of UniProt P14416 (P14416 whole entry, looked up): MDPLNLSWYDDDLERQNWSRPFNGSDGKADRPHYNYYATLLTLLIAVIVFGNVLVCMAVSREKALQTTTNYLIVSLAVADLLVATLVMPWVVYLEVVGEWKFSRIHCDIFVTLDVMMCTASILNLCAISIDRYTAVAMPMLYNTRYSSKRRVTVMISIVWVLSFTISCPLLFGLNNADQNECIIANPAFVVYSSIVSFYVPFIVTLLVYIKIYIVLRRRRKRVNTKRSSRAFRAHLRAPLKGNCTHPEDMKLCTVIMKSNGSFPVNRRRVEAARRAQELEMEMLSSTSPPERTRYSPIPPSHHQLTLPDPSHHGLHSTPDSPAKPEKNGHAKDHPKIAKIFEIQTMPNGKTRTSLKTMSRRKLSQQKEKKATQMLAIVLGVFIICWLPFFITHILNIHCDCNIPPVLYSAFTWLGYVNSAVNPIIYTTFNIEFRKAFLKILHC
Procedure, shortened: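 Overnight-induced (tetracycline, 30 C) HEK293 T-REx cells carrying force-coupled D2 receive a no-wash calcium dye, then compound, then EC80 dopamine at 180 s; signals are read kinetically throughout.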
With COc1ccc(-c2nsc(NC(=O)c3oc4cc(C)c(C)cc4c3C)n2)cc1 the inhibition was -4.59%. Work on CC(=O)c1ccc(NC(=O)Cn2c(=O)n(Cc3ccco3)c(=O)c3sc4ccccc4c32)cc1 yielded an inhibition of 3.94%. Cc1nn2c(=O)cc(COC(=O)CNC(=O)c3ccc(F)cc3)nc2s1 was tested, and the inhibition was -0.154%. COc1ccc(C2=NC(C)(C)N(CC(=O)Nc3ccc(F)c(F)c3)C2=O)cc1 showed an inhibition of -1.17%. In the case of CCN1CCN(c2cc(C)c3cc(NC(=O)c4cc(Cl)ccc4OC)ccc3n2)CC1, the inhibition is reported as -6.37%. CCCc1cnc2c(c1SCc1ccc(C(F)(F)F)cc1)c(=O)n(C)c(=O)n2C was tested, and the inhibition was 9.16%. CCN1C(=O)C2(c3ccccc31)c1c(oc3ccc(F)cc3c1=O)C(=O)N2CCCOC (stereo not drawn) gave an inhibition of 4.81%. CC(C)Oc1ccc(CNC(=O)c2ccc(Cn3c(=O)c4cccn4c4cccnc43)cc2)cc1 showed an inhibition of 16.4%. COc1ccccc1N1CCN(C(=O)Cn2ncc3c(=O)oc4ccc(C)cc4c32)CC1 showed an inhibition of 15.9%. With C=C(C)c1cccc(C(C)(C)NC(=O)NCc2ccncc2)c1 the inhibition was active: 34.5%. In the case of CN(C)S(=O)(=O)c1ccc(C(=O)Nc2ccc(-n3nncc3-c3ccccc3)cc2)cc1, the inhibition is reported as 12.9%. COc1ccccc1NS(=O)(=O)c1cc2c(cc1Cl)NC(=O)CO2 was tested, and the inhibition was -6.02%. Molecule O=C1CN(C(=O)Nc2ccccc2C(F)(F)F)C(c2ccccc2)c2c(sc3c2CCCC3)N1 (stereo not drawn) has an inhibition of 23%. For CCOc1ccc(CCNC(=O)CSc2cc(=O)n(C)c3ccc(Cl)cc23)cc1OCC, the inhibition was -17%. For OC1(Cc2cc(-c3ccccc3)no2)CCN(CCCc2ccccc2)CC1, the inhibition was active: 73.1%. COc1ccc(-c2nc(SCC(=O)Nc3ccc4c(c3)OCCO4)c(-c3ccccc3)[nH]2)cc1 showed an inhibition of 20.8%. CCc1ccc(NC(=O)Cn2c(=O)n(-c3cc(C)cc(C)c3)c(=O)c3oc4ccccc4c32)cc1 showed an inhibition of -0.631%. COC(=O)c1ccccc1NC(=O)C1=C(C)C(=O)OC12CCC(C)CC2 (stereo not drawn) was tested, and the inhibition was 9.61%. In the case of Cc1ccc(CSc2oc(-c3cccs3)nc2S(=O)(=O)c2ccc(C)cc2)cc1, the inhibition is reported as 21.6%. COC(=O)CC1Oc2ccc(C)cc2-n2cc(-c3ccc(C)cc3)nc21 (stereo not drawn) was tested, and the inhibition was 0.729%. For CC(C)CC(=O)Nc1nnc(S(=O)(=O)N2CCc3ccccc32)s1, the inhibition was 13.4%. Cc1ccc(-n2nc3c(=O)n(CCCC(=O)NC(C)c4ccccc4)nc(C)c3c2C)cc1 (stereo not drawn) gave an inhibition of -6.66%. Work on CCOC(=O)/C(C#N)=C/c1ccc(-c2ccc(C)cc2)o1 yielded an inhibition of -1.68%. Molecule CCCN(CCC)C(=O)Cn1c(=O)n(Cc2ccc(C(=O)NCCc3ccc(Cl)cc3)cc2)c(=O)c2ccccc21 has an inhibition of 16.8%. With COc1ccccc1Cn1cc(C(=O)c2ccc(C)cc2)c(=O)c2cc(F)cc(F)c21 the inhibition was 8.25%. With COc1ccc(OC)c(-c2noc(N3CCN(c4cccc(C)c4C)CC3)n2)c1 the inhibition was -8.14%. With COc1cccc(CN(C(=O)c2cccc(C)c2)C2CCS(=O)(=O)C2)c1 (stereo not drawn) the inhibition was 0.661%. Molecule CC(=O)c1ccc(NC(=O)Cn2nc(C(F)(F)F)c3c2CCCC3)cc1 has an inhibition of 4.35%. For COc1cc2[nH]c(=O)n(Cc3ccc(C(=O)NC4CCN(Cc5ccccc5)CC4)cc3)c(=O)c2cc1OC, the inhibition was active: 90.8%. CCSc1nn(CC(=O)Nc2cccc(Cl)c2)c(N)c1S(=O)(=O)c1ccc(OC)cc1 showed an inhibition of -5.27%. In the case of Cc1ccc2occ(C(=O)c3ccco3)c(=O)c2c1, the inhibition is reported as active: 38.5%. COc1ccc(NC(=O)C(=O)NCc2ccco2)cc1 showed an inhibition of 5.01%. In the case of CCN(CCCNC(=O)Cn1ncc2c([nH]c3ccc(C)cc32)c1=O)Cc1ccccc1, the inhibition is reported as 3.64%. CC(C)n1c(=N)c(C(=O)NC2CCCCC2)cc2c(=O)n3ccccc3nc21 showed an inhibition of 1.22%. With Clc1cccc(CSc2nnc(C3CCNCC3)o2)c1 the inhibition was -8.66%. For COc1ccc(OCC(O)CN2CCN(c3ncccn3)CC2)cc1 (stereo not drawn), the inhibition was active: 62.2%. Cc1ccc(C)c(OCCN2C(=O)NC3(CCc4ccccc4C3)C2=O)c1 (stereo not drawn) was tested, and the inhibition was active: 33%. In the case of CCc1cccc(NC(=O)Cn2nc3c4cc(F)ccc4n(Cc4cccc(C)c4)cc-3c2=O)c1, the inhibition is reported as 5.86%. For CC(C)Oc1ccc(C(=O)Nc2nonc2-c2ccc(OC(C)C)cc2)cc1, the inhibition was 3.88%. In the case of COC(=O)CCN(C(=O)C1CCN(S(=O)(=O)c2c(C)noc2/C=C/c2ccccc2F)CC1)c1ccccc1, the inhibition is reported as 10.4%. CCCNC(=O)c1cnc2c(-c3ccc(OCC)c(OCC)c3)c(C)nn2c1-c1ccccc1 gave an inhibition of -7.92%. COc1cc(NC(=O)CC(c2cccs2)N2Cc3ccccc3C2=O)cc(OC)c1OC (stereo not drawn) showed an inhibition of 10.4%. With CCOC(=O)c1cc(C)n(CC2CCC(C(=O)Nc3cc(OC)cc(OC)c3)CC2)c1C (stereo not drawn) the inhibition was -4.54%. Work on O=C(Nc1ccc(Cl)c(-c2nc3cc(Cl)ccc3o2)c1)c1cc2ccccc2o1 yielded an inhibition of 8.76%. With Cc1ccccc1NS(=O)(=O)c1nnc(NC(=O)c2ccco2)s1 the inhibition was 13.8%. With CC(=O)N1CCN(c2ccc(S(=O)(=O)N3CCCCC3)cn2)CC1 the inhibition was active: 37.7%. CCOC(=O)c1c(S(=O)(=O)NCC(=O)N(C)c2ccc(C)cc2)c(C)n(C)c1C gave an inhibition of 24.2%. Cc1ccccc1-c1nc(SCC(=O)N(C)c2ccccc2)c2c(=O)n(C)c(=O)n(C)c2n1 showed an inhibition of -7.42%. With COc1ccc(CCC(=O)NCCc2csc(-c3cccc(C)c3)n2)cc1 the inhibition was -1.11%. With Cc1ccc(C)c(CN2C(=O)c3ccccc3S(=O)c3ccc(C(=O)NCCC4=CCCCC4)cc32)c1 (stereo not drawn) the inhibition was 12%. Work on CCOc1ccc2cc(-c3nnc(Nc4ccc(C)cc4)s3)c(=O)oc2c1 yielded an inhibition of -3.96%. Cc1ccccc1OCc1ccc(-c2nc(C#N)c(N3CCC(C(N)=O)CC3)o2)o1 gave an inhibition of 22.5%. With COc1ccc(/C=C/C(=O)c2ccc(Cl)s2)cc1O the inhibition was active: 37.2%. CCOc1ccc2c(c1)c(=O)c(S(=O)(=O)c1ccc(Cl)cc1)cn2Cc1ccccc1C gave an inhibition of 0.0667%. In the case of COc1ccc(Cl)cc1NC(=O)CN(C)C(=O)c1cc2c(s1)CCCC2, the inhibition is reported as active: 46.4%. Molecule COc1cccc(Nc2nc3ccc(C(=O)c4ccccc4)cc3n3c(C)nnc23)c1 has an inhibition of 7.13%. CC(=O)c1ccc(N2CCN(C(=O)C3CCN(S(=O)(=O)c4c(C)noc4/C=C/c4ccccc4F)CC3)CC2)cc1 gave an inhibition of 18.2%. Work on Cc1cc(C)c(S(=O)(=O)NCCc2csc3nc(-c4ccc(Cl)cc4)nn23)c(C)c1 yielded an inhibition of 7.56%. Cc1ccc(NC(=O)c2sc3ncnc(N(C)C4CCCCC4)c3c2C)cc1 showed an inhibition of -0.53%. O=c1c2c3c(sc2n(Cc2ccc(F)cc2Cl)c(=O)n1-c1ccc(Cl)cc1)CCC3 showed an inhibition of -5.09%. Molecule Cc1ccc(C)c(N2CCN(c3nc4ccccc4c(=O)n3-c3ccccc3)CC2)c1 has an inhibition of 14.8%. In the case of O=C(O)c1ccccc1S(=O)(=O)Cc1ccccc1, the inhibition is reported as active: 36.4%. In the case of CCOc1ccc2nc(N(CCCN(C)C)C(=O)c3ccc(S(=O)(=O)N4CCCC4)cc3)sc2c1, the inhibition is reported as active: 31.5%. COc1cc(NC(=O)CC2C(=O)N(c3cccc(C)c3)C(=O)N2Cc2cccs2)cc(OC)c1 (stereo not drawn) was tested, and the inhibition was 1.17%. CC(C)Oc1ccc(CNC(=O)Cn2c(-c3cccs3)cc3ccccc32)cc1 was tested, and the inhibition was -5.64%. Cc1ccc(C(=O)Nc2ccc3[nH]c(=O)c(=O)[nH]c3c2)cc1 was tested, and the inhibition was -1.31%. Cc1ccc(C2CCN(C(=O)Nc3ccc(C)c(C)c3)C2)cc1 (stereo not drawn) was tested, and the inhibition was -8.12%. COc1ccc(S(=O)(=O)NC(C)C(=O)N2CCCC2)cc1C (stereo not drawn) was tested, and the inhibition was active: 32.4%. COc1cccc(C(=O)Nc2ccc(S(=O)(=O)N(Cc3ccccc3)c3ccccc3)cc2)c1 gave an inhibition of -14.7%. Molecule CCS(=O)(=O)N1CCc2cc(C(=O)NCCc3ccc(OC)c(OC)c3)ccc21 has an inhibition of -17.5%. Molecule CCc1ccccc1N(C)S(=O)(=O)c1ccc2c(c1)C(C)(C)C(=O)N2C has an inhibition of -2.14%. Molecule Cc1c(C(=O)N(C)C)sc2c1c(=O)n(-c1ccc(F)cc1)c(=O)n2Cc1ccccc1C#N has an inhibition of -9.68%. COc1cccc(NC(=O)c2csnn2)c1 gave an inhibition of -2.66%. For CC(=O)N1CCc2cc(CNC(=O)Nc3ccc(Br)c(C)c3)ccc21, the inhibition was -18.7%. With Fc1ccc2c(c1)-c1c(cnc3cc(-c4ccc(Cl)cc4)nn13)CO2 the inhibition was -2.42%. For C=Cc1ccc(Cn2ccn(-c3ccc(F)c(F)c3)c(=O)c2=O)cc1, the inhibition was 21.7%. With CC(C)CN(C(=O)c1cccc(S(=O)(=O)N2CCN(c3ccc(F)cc3)CC2)c1)C1CCS(=O)(=O)C1 (stereo not drawn) the inhibition was active: 34.6%. For COc1ccc(CCN2C(=O)c3[nH]nc(-c4ccccc4O)c3C2c2ccccc2)cc1 (stereo not drawn), the inhibition was 8.8%. CCOc1ccc(-c2cc3nc(C4CCN(C(=O)OC(C)(C)C)CC4)c(C(=O)Nc4c(C)cccc4C)cn3n2)cc1 gave an inhibition of 21.6%. For Cc1cc(C)c(Cn2c(=O)n(CCCCC(=O)NCc3ccccc3Cl)c(=O)c3ccccc32)c(C)c1, the inhibition was -10.8%. CCC(=O)Nc1ccccc1-c1nc2ccccc2n(C(CC)C(=O)Nc2cccc(Cl)c2)c1=O (stereo not drawn) showed an inhibition of 2.06%. For COc1ccc(NC(=O)C2=C(C)Nc3ncnn3C2c2ccc[nH]2)cc1 (stereo not drawn), the inhibition was -5.59%. With Cc1cc(NC(=O)Cn2c(=O)oc3cc(S(=O)(=O)N4CCCC4)ccc32)ccc1Br the inhibition was -21%. With COc1ccc(CCNC(=O)C2CCCN(S(=O)(=O)c3ccc4c(c3)oc(=O)n4C)C2)cc1OC (stereo not drawn) the inhibition was 6.06%. Molecule O=S(=O)(c1ccccc1)c1nc(-c2cccc(Cl)c2)oc1N1CCOCC1 has an inhibition of 16.8%. In the case of COc1ccc(-c2nc(CSc3nnc(C)n4c3cc3oc(C)cc34)c(C)o2)cc1OC, the inhibition is reported as 7.79%. CCN(CCCNC(=O)c1ccc(Sc2ccc(Cl)cc2)c(NC(C)=O)c1)c1ccccc1 was tested, and the inhibition was -5.89%. CCn1cc2nc(SCc3ccc(F)cc3)n(CCc3ccccc3)c(=O)c2n1 gave an inhibition of 2.02%. CCN(CC)S(=O)(=O)c1nnc(NC(=O)c2ccc(Br)cc2)s1 was tested, and the inhibition was -3.65%. With COc1ccc2cc(CNc3ccc(C)cc3)c(=O)n(CC(=O)Nc3cccc(Cl)c3C)c2c1 the inhibition was -6.59%. COc1cc(Cl)c(C)cc1NC(=O)c1cnn(-c2ccc(F)cc2F)c1C1CCN(C(=O)OC(C)(C)C)CC1 gave an inhibition of 22.5%. CCOC(=O)c1c(NC(=O)COc2ccccc2Br)sc2c1CCCCC2 was tested, and the inhibition was 8.49%. Cc1ccc(-c2nnc(Nc3ccccc3)c3ccccc23)cc1S(=O)(=O)N1CCN(C)CC1 gave an inhibition of -7.11%.
